Laboratory results published in PubChem BioAssay AID485294 (National Center for Advancing Translational Sciences (NCATS), 2010).
Screen size: about 370,000 compounds; about 150 (0.041%) were called active. The shares of active, inactive and inconclusive entries below differ from those in the screen. Calls come from the whole dose curve; as a rule, active = well fitted inhibition curve with a large enough effect; inconclusive = small, poorly fitted or top-dose-only effect; inactive = flat fitted curve, though single readings scatter. Potencies of inconclusive entries are left out as doubtful fits.

What follows are compounds tested against Beta-lactamase (Escherichia coli (strain K12)) (UniProt P00811) (assay: qHTS Inhibitors of AmpC Beta-Lactamase (assay with detergent)). Conditions: AmpC hydrolysis of nitrocefin, absorbance 480 nm, 0.01% Triton; series mostly up to 114 µM.
Outline: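 20 mM phosphate pH 7.0 + 0.01% (detergent screen) or 0.0001% Triton X-100; 5.3 nM AmpC reagent; cpd preinc 15 min RT; nitrocefin (800 uM stock) to start; A480 q20 s × 4 min; Activity was normalised to no-enzyme and no-compound control wells.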
Note: nearly all actives have a fitted effect of over 25% in size.
Potency is the fitted concentration of half-maximal effect; tags give direction and shape of the fitted curve.

Chain of UniProt P00811 (P00811 whole entry, looked up): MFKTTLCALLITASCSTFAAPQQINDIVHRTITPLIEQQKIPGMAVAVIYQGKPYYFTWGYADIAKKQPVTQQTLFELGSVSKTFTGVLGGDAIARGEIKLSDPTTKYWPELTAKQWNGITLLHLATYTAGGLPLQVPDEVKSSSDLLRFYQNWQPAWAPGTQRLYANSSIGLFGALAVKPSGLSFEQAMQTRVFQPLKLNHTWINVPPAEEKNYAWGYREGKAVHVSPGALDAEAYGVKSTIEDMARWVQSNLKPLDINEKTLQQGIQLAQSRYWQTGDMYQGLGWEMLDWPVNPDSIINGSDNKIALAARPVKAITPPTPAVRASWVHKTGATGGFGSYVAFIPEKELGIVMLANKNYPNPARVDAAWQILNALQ

Row | SMILES | Potency
1 | COc1ccc(N=c2oc3ccccc3cc2C(=O)Nc2ccccn2)cc1OC | inactive
2 | O=C(CNC(=O)C12CC3CC(CC(C3)C1)C2)N1CCN(S(=O)(=O)c2cccs2)CC1 | inconclusive [inhibitor, full curve, poor fit]
3 | CCc1c(C)nc(N2CCN(c3ccc(Cl)cc3)CC2)[nH]c1=O | inconclusive [inhibitor, full curve, poor fit]
4 | CCN(CC)S(=O)(=O)c1cccc(NC(=O)c2cc(-c3cccs3)nn2-c2ccccc2)c1 | inconclusive [inhibitor, full curve]
5 | O=C(NCC(=O)N1CCCCCCC1)c1ccccc1Br | inconclusive [inhibitor, partial curve]
6 | O=C(NCc1nc2ccccc2[nH]1)c1cccs1 | inconclusive [inhibitor, full curve, poor fit]
7 | COc1ccc([C@]23Cc4ccccc4C(O2)C2=C(CC(C)(C)CC2=O)O3)cc1 | inconclusive [inhibitor, partial curve]
8 | CCOc1ccc(N(CC(=O)NC2CCC(C)CC2)S(=O)(=O)c2c(C)noc2C)cc1 (stereo not drawn) | inactive
9 | Cc1sc(C(=O)Nc2ccc3ccccc3c2)cc1CC(=O)O | inconclusive [inhibitor, partial curve]
10 | Cc1ccc(C)c(N2CCN(C(c3ccncc3)c3nnnn3Cc3ccccc3)CC2)c1 (stereo not drawn) | inconclusive [inhibitor, single point]
11 | Cc1nn(C)c(C)c1NC(=O)/C(C#N)=C\N(C)C | inconclusive [inhibitor, full curve, poor fit]
12 | O=C(CSc1ccnc(=O)[nH]1)NCc1ccc(F)cc1 | inactive
13 | Cc1ccc(S(=O)(=O)NCCCC(=O)N2CCC(C)CC2)cc1 | inconclusive [inhibitor, partial curve, poor fit]
14 | CCOc1ccc(OCCCC(=O)N(C)CC(=O)Nc2ccc(N3CCOCC3)cc2)cc1 | inconclusive [inhibitor, full curve, poor fit]
15 | O=C(O)c1ccccc1NS(=O)(=O)c1cccc(C(F)(F)F)c1 | inconclusive [inhibitor, full curve, poor fit]
16 | C/C(=N\NC(=O)c1ccc(C)cc1C)c1ccc(-n2ccnc2)cc1 | inconclusive [inhibitor, full curve, poor fit]
17 | O=C(C[n+]1ccccn1)c1ccccc1 | inactive
18 | CN(C(=O)CSc1nc2[nH]ncc2c(=O)[nH]1)c1ccccc1 | inconclusive [inhibitor, full curve, poor fit]
